The text below walks through data of PMC4336329 (PLoS ONE, 2015).

Screen size: about 310,000 compounds; about 2,200 (0.71%) showed an effect of 50% or more. The effect is printed as a negative number. The list shows a part of the results.

human ether-à-go-go-related gene (hERG) potassium channel, sequence (Q12809 whole entry, looked up): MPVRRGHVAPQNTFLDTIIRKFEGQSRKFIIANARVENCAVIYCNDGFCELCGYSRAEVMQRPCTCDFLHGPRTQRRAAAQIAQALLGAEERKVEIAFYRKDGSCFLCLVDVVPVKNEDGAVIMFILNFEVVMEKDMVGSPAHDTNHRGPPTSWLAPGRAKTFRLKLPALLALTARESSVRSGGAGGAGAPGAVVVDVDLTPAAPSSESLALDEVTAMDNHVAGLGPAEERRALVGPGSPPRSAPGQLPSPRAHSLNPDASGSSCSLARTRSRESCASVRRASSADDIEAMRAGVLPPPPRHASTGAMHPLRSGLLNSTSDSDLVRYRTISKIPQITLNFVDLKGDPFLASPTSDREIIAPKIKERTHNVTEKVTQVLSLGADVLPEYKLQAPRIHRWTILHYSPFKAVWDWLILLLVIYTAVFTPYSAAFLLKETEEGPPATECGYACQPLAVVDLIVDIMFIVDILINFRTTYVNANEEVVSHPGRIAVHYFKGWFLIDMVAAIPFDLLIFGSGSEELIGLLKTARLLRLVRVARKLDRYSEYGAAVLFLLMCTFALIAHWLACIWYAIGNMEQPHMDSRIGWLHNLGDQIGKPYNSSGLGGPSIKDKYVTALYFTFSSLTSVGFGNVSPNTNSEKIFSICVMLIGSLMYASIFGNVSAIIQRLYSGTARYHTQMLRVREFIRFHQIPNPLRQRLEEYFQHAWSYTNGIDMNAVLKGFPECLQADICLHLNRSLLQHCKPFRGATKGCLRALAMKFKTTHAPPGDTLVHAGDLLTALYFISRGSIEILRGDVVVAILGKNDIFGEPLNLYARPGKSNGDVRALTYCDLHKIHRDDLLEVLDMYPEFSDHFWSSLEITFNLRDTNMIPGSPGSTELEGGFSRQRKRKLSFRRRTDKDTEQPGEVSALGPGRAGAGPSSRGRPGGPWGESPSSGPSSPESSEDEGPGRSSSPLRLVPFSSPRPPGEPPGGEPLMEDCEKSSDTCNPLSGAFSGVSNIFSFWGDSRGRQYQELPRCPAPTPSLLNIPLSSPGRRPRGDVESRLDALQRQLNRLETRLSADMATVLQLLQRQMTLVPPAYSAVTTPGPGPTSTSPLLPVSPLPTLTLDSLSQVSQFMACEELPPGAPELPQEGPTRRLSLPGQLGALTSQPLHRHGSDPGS

This assay addresses human ether-à-go-go-related gene (hERG) potassium channel (human, UniProt Q12809). Kind of assay: primary screen, population patch clamp on CHO cells stably expressing hERG.
Consider `COc1ccc(N2CCN(C(=O)c3ccc(S(=O)(=O)N4CCOCC4)cc3)CC2)cc1`, for which the “hERG current change (%, negative = inhibition) at 1uM” value worked out at 0.972%.
The figure for `Cc1cccc(CCNC(=O)c2cc(=O)[nH]c3ccc(Br)cc23)c1` is 1.53%; for `CCOC(=O)C1CCCN(C(=O)COC(=O)c2cc(=O)c3ccccc3o2)C1` (centres unmarked) it is 14.7%.
`COc1cccc(C(C(=O)NCC2CCCO2)N(C(=O)Cn2nnc3ccccc32)c2ccc(NC(C)=O)cc2)c1OC` (centres unmarked): the “hERG current change (%, negative = inhibition) at 1uM” value came to 14.2%.
Take `COc1cccc(N2CCN(C(=O)CC(NC(=O)c3ccccc3)c3ccccc3)CC2)c1` (centres unmarked): the “hERG current change (%, negative = inhibition) at 1uM” value is recorded as -27%.
The figure for `O=C(CCS(=O)(=O)c1ccc2c(c1)NC(=O)CS2)NCc1cccs1` is -22.1%.
In the case of `C#CC1(NC(=O)NS(=O)(=O)c2ccc(C)cc2)CCCCC1`, the “hERG current change (%, negative = inhibition) at 1uM” value is 10.4%.
The figure for `CCCC(=O)N1CCCC(C(=O)c2cccc(OC(C)C)c2)C1` (centres unmarked) is 9.81%; for `COC(=O)c1cccc(N2C(=O)c3cccnc3C2=O)c1` it is 12%; for `COC(=O)Nc1nnc(CC(=O)Nc2ccccc2C)s1` it is -1.45%.
For `CN(C(=O)CSc1nnc(-c2ccncc2)n1C)C1CCS(=O)(=O)C1` (centres unmarked) the value was 7.59%; for `COc1ccc(Cl)cc1NC(=O)CCN1CCN(Cc2ccccc2)CC1`, -13.9%.
The figure for `COc1ccc(NC(=O)CSc2nnc(-c3ccncc3)n2C)cc1` is 20.4%.
`Cc1c(CCC(=O)NCCCCCC(=O)O)c(=O)oc2c(C)c3oc4c(c3cc12)CCCC4`: the “hERG current change (%, negative = inhibition) at 1uM” value is 15.3%.
The figure for `Cc1ccc(NC(=O)CN(C)S(=O)(=O)c2cccs2)cc1C` is 8.82%; for `O=C(c1ccc2c(=O)n3c(nc2c1)CCCCC3)N1CCN(c2cccc(Cl)c2)CC1` it is -2.75%; for `O=C(C/C=N\OCc1ccc([N+](=O)[O-])cc1)Nc1ccc(F)cc1F` it is 5.23%.
For `COc1ccc(C(=O)O)cc1NC(=S)NC(=O)Cc1ccc(Cl)cc1` the value was 12.9%; for `CN(C)c1nc(N)nc(Cn2nnc(-c3ccc(C(F)(F)F)cc3)n2)n1`, 22.3%; for `CN(C)/N=C/c1c(O)ccc2ccccc12`, 13%.
For `Cc1cc(C)cc(OCC(=O)NNC(=O)c2ccoc2C)c1` the value was 9.44%.
As for `Cc1ccc2[nH]c(C(=O)N/N=C/c3ccccc3O)c(C)c2c1`, the “hERG current change (%, negative = inhibition) at 1uM” value turned out to be 11.3%.
For `Cc1cc(C)cc(-n2c(C)nc3cc(C(=O)O)ccc32)c1` the value was 14.4%; for `O=C(Nc1ncc(C(F)(F)F)cc1Cl)C1COc2ccccc2O1` (centres unmarked), 14.5%.
For `CCCCN(C(=O)CCC(=O)Nc1cc(C)on1)C(C(=O)NC(C)(C)CC)c1cccc(OC)c1OC` (centres unmarked) the value was 6.77%; for `Cc1ccc(S(=O)(=O)NCC(=O)OCC(=O)Nc2ccc3c(c2)OCCO3)cc1`, 2.12%; for `COCCOC1CCN(C(=O)C2CCC(=O)N(CCc3cccc(F)c3)C2)CC1` (centres unmarked), 8.72%.
The figure for `CS/C(N)=N/N=C/c1ccc([N+](=O)[O-])cc1.I` is -19.7%; for `CCOc1cccc(N2C(=O)/C(=C/c3ccco3)C(=O)NC2=S)c1` it is 10.4%.
Turning to `COc1cccc(C(=O)Nc2ccc3c(c2)CCCN3C(=O)c2cccs2)c1OC`, the “hERG current change (%, negative = inhibition) at 1uM” value was 10.3%.
The figure for `Cc1cccc(C(=O)NCC(=O)OCc2nnc(-c3ccccc3)o2)c1` is 10.5%.
`CCOc1cc(C(c2c(C)[nH][nH]c2=O)c2c(C)[nH][nH]c2=O)ccc1OS(=O)(=O)c1ccc(C)cc1`: the “hERG current change (%, negative = inhibition) at 1uM” value was found to be 15.5%.
The figure for `COc1ccccc1NC(=O)NCCCl` is 13.5%.
For `Cc1cc(C)n(CCCNC(=O)Cn2nnnc2CN2C[C@@H](C)O[C@@H](C)C2)n1` the value was 10.3%; for `CCCOC(=O)Nc1nnc(CCC)s1`, -6.5%.
For `Cc1cc(C)c(NC(=O)Cn2cc3c(n2)CCCC3)c(C)c1` the value was 10%; for `c1ccc(Cn2nnnc2C(c2cccnc2)N2CCN(c3ccccc3)CC2)cc1` (centres unmarked), 1.03%; for `Cc1ccc(NC(=O)CCNS(=O)(=O)c2cccc3nonc23)cc1`, 6.65%.
In the case of `O=C1NC(c2cccs2)Nc2ccccc21` (centres unmarked), the “hERG current change (%, negative = inhibition) at 1uM” value was determined as 5.75%.
On to `COC(=O)c1c(NC(=O)C2CC=CCC2C(=O)O)sc(C)c1C` (centres unmarked), for which the “hERG current change (%, negative = inhibition) at 1uM” value turned out to be 0.631%.
The figure for `Cc1cc(NS(=O)(=O)c2ccc(NC(=O)c3ccco3)cc2)nc(C)n1` is 12.6%; for `CCCSc1nnc2n(C)c(=O)c3c4c(sc3n12)CCC4` it is -32.7%; for `O=C(NCCC1=CCCCC1)C1CC(=O)N(C2CCCCC2)C1` (centres unmarked) it is 0.327%.
For `O=C(COC(=O)Cc1ccc(Cl)cc1Cl)Nc1ccc(OC(F)F)cc1` the value was 10.8%.
Take `CCOCCCNC(=O)c1ccccc1NC(=O)C1=C(C)OCCS1`: the “hERG current change (%, negative = inhibition) at 1uM” value was determined as 12.6%.
The figure for `COc1cc(/C=N/NC(=O)CCn2c3ccccc3c3ccccc32)cc(OC)c1OC` is 9.14%; for `COc1ccc(CSc2nc(C)[nH]c2[N+](=O)[O-])cc1[N+](=O)[O-]` it is 12.3%.
The figure for `O=C(O)C1CC(=O)N(c2ccc(F)cc2)C1` (centres unmarked) is 8.22%.
For `Cc1ccc(N2C(=O)c3ccc(C(=O)O)cc3C2=O)c(C)c1` the value was 12.7%; for `C=CCNC(=O)c1c2c(nc3ccccc13)-c1ccccc1CC2`, -13.3%.
As to `Cc1ccc(S(=O)(=O)N(C)C)cc1NS(=O)(=O)c1ccc(Cl)s1`, the “hERG current change (%, negative = inhibition) at 1uM” value amounted to 12.8%.
For `CC(C)(C)C1(C)OC(=O)C(=Cc2ccc(OCC(=O)Nc3ccccc3)cc2)C(=O)O1` (centres unmarked) the value was 5.84%; for `COc1cc(CNCc2ccc(C(=O)O)cc2)ccc1OCc1ccc(F)cc1.Cl`, 9.76%; for `Cn1ccc(CC(=O)N2CCC(N3CCC(C(=O)N4CCCC4)CC3)CC2)c1`, 8.28%.
With `CCCCN(Cc1cccs1)S(=O)(=O)c1csc(C(N)=O)c1`, the “hERG current change (%, negative = inhibition) at 1uM” value is recorded as -0.0485%.
For `O=C(NC1CCCC1)C(c1ccccc1)N(C(=O)c1ccco1)C1CCCC1` (centres unmarked) the value was 10%; for `CCOc1ccccc1NC(=O)C(OC(=O)c1ccccc1)c1ccccc1` (centres unmarked), 32.8%.
The figure for `O=C(CNCc1cccs1)Nc1cc(S(=O)(=O)N2CCCC2)ccc1Cl` is 1.29%; for `COc1cc(/C=C(\C#N)C(=O)Nc2cc(C(F)(F)F)ccc2Cl)ccc1OCC(=O)Nc1cccc(C(F)(F)F)c1` it is 15.3%; for `COc1ccc(Br)cc1CN1CCN(C(=O)c2ccc(F)cc2)CC1.O=C(O)C(=O)O` it is 17.2%.
For `O=C(Nc1ccccc1)ON=C1CCCC1` the value was 3.73%; for `O=C(CN1CCC(c2nc3ccccc3s2)CC1)NCc1ccccc1`, -44.6%.
In the case of `CC(=O)N1CCN(C(=O)CSc2nc3c(cnn3-c3ccccc3)c(=O)[nH]2)CC1`, the “hERG current change (%, negative = inhibition) at 1uM” value came out at 1.79%.
For `COc1ccccc1N1CCN(C(=O)CCCN2C(=O)c3cccc4cccc(c34)C2=O)CC1.Cl` the value was -89.5%.
On to `COCC(=O)Oc1c(S(=O)(=O)c2ccc(C)cc2)c(C)nn1C(C)(C)C`, for which the “hERG current change (%, negative = inhibition) at 1uM” value worked out at 14.8%.
Regarding `CCn1c(SCC(=O)N2CCN(C)CC2)nc2c1c(=O)n(C)c(=O)n2C`, the “hERG current change (%, negative = inhibition) at 1uM” value was found to be 13%.
Regarding `Cc1cc(C)nc(-n2nc(C)cc2NC(=O)c2ccc(S(=O)(=O)N3CCOCC3)cc2)n1`, the “hERG current change (%, negative = inhibition) at 1uM” value is 13.6%.
For `COCCN(CCOC)S(=O)(=O)c1ccc(NC(=O)c2cnccn2)cc1`, the “hERG current change (%, negative = inhibition) at 1uM” value came out at 12.1%.
For `Cn1c2c(c(=O)n(C)c1=O)C(C(F)(F)F)(C(F)(F)F)N=C(c1ccccc1Cl)N2` the value was 19.5%.
`CCOc1cc(C2NC(=O)N(C)C(C)=C2[N+](=O)[O-])ccc1OC(C)=O` (centres unmarked): the “hERG current change (%, negative = inhibition) at 1uM” value is listed as 8.47%.
The figure for `Cc1nc(NC(=O)C2CC2)sc1C(=O)Nc1ccccc1Cl` is 17.5%.
As to `O=C(NCc1cccs1)c1cccnc1Cl`, the “hERG current change (%, negative = inhibition) at 1uM” value was found to be 5.45%.
The figure for `CCN(C(=O)Cc1c(C(=O)O)[nH]c2ccccc12)c1cc(OC)ccc1OC` is 3.47%.
Take `CCOc1ccccc1NC(=O)COc1ccc2c(c1)OCO2`: the “hERG current change (%, negative = inhibition) at 1uM” value is 14.1%.
The figure for `CCOC(=O)C1CCCN(C(=O)c2cccc3ccccc23)C1` (centres unmarked) is 15.2%; for `CCOc1ccccc1Nc1nnc(SCC(=O)Nc2nc(-c3ccc(OC)cc3)cs2)s1` it is 6%.
For `Cc1ccc(OCC(=O)Nc2cccc(-c3nnc(-c4ccccc4)o3)c2)c(C)c1` the value was -2.15%; for `CC(=O)Cn1c(=O)c2c(nc3n2CCCN3Cc2ccccc2)n(C)c1=O`, 9.57%; for `COP(=O)(CN(Cc1ccccc1)C(=S)Nc1c(C)cccc1C)OC`, 10.7%.
The figure for `O=c1c2cc(-c3ccccc3)sc2nc2n1CCC2` is 6.69%; for `Cc1ccc(C(C(=O)NC(C)(C)C)N(CC2CCCO2)C(=O)CCC(=O)Nc2ccccn2)cc1` (centres unmarked) it is 12.2%.
On to `O=C(Nc1ccc([N+](=O)[O-])cc1)/C(=C/c1cccc([N+](=O)[O-])c1)NC(=O)C1CCCCC1`, for which the “hERG current change (%, negative = inhibition) at 1uM” value is recorded as -18.8%.
For `CC(NC(=S)NC(=O)c1ccccc1)c1ccccc1` (centres unmarked) the value was 10.5%; for `CCn1c(CC(=O)Nc2ccc(F)cc2)nnc1SCC(=O)Nc1nnc(C)s1`, 13.4%; for `CCOc1ccc(C(=O)N/N=C(\c2ccccc2)c2ccccn2)cc1`, -6.27%.
`CCOc1ccc(-c2nnn(CC(=O)NCc3ccccc3)n2)cc1`: the “hERG current change (%, negative = inhibition) at 1uM” value is reported as 17.5%.
